Measurements from PMC4336329 (PLoS ONE, 2015).
In all, about 310,000 compounds went through this assay and about 2,200 (0.71%) showed an effect of 50% or more. The effect is printed as a negative number. Some of the results follow.

target: human ether-à-go-go-related gene (hERG) potassium channel (human, UniProt Q12809); assay: primary screen, population patch clamp on CHO cells stably expressing hERG
Sequence (Q12809 whole entry, looked up): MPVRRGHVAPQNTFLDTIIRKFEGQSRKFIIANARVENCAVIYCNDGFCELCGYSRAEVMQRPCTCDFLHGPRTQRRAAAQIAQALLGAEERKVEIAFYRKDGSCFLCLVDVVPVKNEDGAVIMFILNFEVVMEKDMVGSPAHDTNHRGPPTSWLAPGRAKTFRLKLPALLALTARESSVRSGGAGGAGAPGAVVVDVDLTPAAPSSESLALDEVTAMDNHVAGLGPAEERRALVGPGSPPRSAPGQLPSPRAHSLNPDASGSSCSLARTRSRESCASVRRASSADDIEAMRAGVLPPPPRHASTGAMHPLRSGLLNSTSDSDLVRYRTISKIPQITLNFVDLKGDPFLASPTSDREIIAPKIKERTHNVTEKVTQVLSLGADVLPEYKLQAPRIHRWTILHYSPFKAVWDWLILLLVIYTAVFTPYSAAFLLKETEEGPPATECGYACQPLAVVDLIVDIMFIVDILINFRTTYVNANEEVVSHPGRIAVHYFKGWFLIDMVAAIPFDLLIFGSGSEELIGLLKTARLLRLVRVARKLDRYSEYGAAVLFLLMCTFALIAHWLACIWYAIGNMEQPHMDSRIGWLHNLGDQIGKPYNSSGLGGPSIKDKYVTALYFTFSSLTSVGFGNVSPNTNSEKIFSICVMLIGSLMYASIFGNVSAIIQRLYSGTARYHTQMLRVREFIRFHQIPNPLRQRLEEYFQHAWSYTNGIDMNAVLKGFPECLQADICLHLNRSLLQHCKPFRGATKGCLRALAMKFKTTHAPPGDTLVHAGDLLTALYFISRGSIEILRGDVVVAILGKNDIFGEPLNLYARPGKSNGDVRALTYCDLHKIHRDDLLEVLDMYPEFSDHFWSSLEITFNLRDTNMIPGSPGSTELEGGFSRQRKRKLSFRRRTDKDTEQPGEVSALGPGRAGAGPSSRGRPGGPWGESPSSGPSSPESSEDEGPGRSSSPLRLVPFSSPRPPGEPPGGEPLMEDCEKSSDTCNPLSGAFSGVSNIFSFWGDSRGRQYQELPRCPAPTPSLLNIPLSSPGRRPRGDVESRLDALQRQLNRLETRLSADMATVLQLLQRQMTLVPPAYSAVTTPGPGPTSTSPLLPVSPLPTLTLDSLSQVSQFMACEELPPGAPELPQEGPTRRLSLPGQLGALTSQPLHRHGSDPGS

| Compound | hERG current change (%, negative = inhibition) at 1uM [%] |
| --- | --- |
| COCCN1CCc2[nH]c(=S)[nH]c(=O)c2C1 | 0.554 |
| CCN1CCN(CCC(=O)Nc2ccccc2)CC1 | 9.51 |
| Cc1cc2c(OCC(O)CNC(C)(C)C)cccc2[nH]1 (stereo not drawn) | 9.16 |
| CC(C)c1ccc(OCc2ccc(C(=O)O)o2)cc1 | 2.32 |
| COCCCN1CC(=O)N2C(c3ccc(C)cc3)c3[nH]c4ccccc4c3C[C@H]2C1=O (stereo partly drawn) | 4.28 |
| Cc1nn(CCCC(=O)Nc2c(F)cc(F)cc2Br)c(C)c1[N+](=O)[O-] | 5.98 |
| Cc1ccc(-c2nnc(Nc3ccc(CC(N)=O)cc3)c3ccccc23)cc1S(N)(=O)=O | 13.2 |
| O=C(NN=C1CCC(=NNC(=O)c2cccnc2)CC1)c1cccnc1 | 19.4 |
| CCOCCCNC(=O)C(Cc1ccccc1)NS(=O)(=O)c1cccc2nsnc12 (stereo not drawn) | 7.61 |
| Cc1ccc(OCC(=O)N2CCC3(CC2)CC(=O)c2ccccc2O3)cc1 | -49 |
| COc1cc(C2C3=C(CCCC3=O)Nc3c2c(C)nn3-c2cccc(C)c2)cc(OC)c1O (stereo not drawn) | 8.55 |
| Cc1ccnc(-n2c(-c3ccco3)nc3ccccc3c2=O)c1 | 0.384 |
| CC1(C)Cc2c(sc3nnn(Cc4ccccc4)c(=O)c23)CO1 | 11.2 |
| COc1cccc(CN2CC(C(=O)NC3CCC3)CCC2=O)c1 (stereo not drawn) | 18.3 |
| COc1ccc(CN2CCCC(C(=O)Nc3cccc(-n4cccn4)c3)C2)c(F)c1 (stereo not drawn) | 12.3 |
| CCOc1ccc(N(CC(=O)O)S(=O)(=O)c2cccnc2)cc1 | 12.8 |
| CCOC(=O)NCc1ccc2c(c1)cc(C)n2C | 13.4 |
| O=C(NC(=S)Nc1nc2c(s1)CCCC2)c1ccc(C(=O)c2ccccc2)cc1 | -1.13 |
| Cc1cccc(C(=O)c2ccccc2C(=O)O)c1 | 16.5 |
| CC(=O)NC(C)C(=O)OCC(=O)Nc1ccc(Br)cc1 (stereo not drawn) | 2.05 |
| COc1ccccc1CN1CCN(S(=O)(=O)c2ccc(C)cc2)CC1 | 10.7 |
| CCCn1nnc(NC(=O)c2cccc(Cl)c2)n1 | 11.9 |
| CCOc1cc(S(=O)(=O)NCCCn2ccnc2)ccc1Cl | -8.45 |

| Compound | hERG current change (%, negative = inhibition) at 1uM [%] |
| --- | --- |
| C=CCNC(=O)C1CCN(c2ccc(S(=O)(=O)N3CCOCC3)cc2[N+](=O)[O-])CC1 | -2.79 |
| Cl.c1ccc(C2CNCCc3ccccc32)cc1 (stereo not drawn) | -2.35 |
| CCn1nc(C)cc1C(=O)N1CCCC(Nc2ccc(F)c(F)c2)C1 (stereo not drawn) | 12 |
| O=C(NNC(=O)c1ccc[nH]1)c1cccc(C(F)(F)F)c1 | 9.97 |
| CCOCCOc1nc2c(c(=O)n(C)c(=O)n2C)n1CCc1ccccc1 | 11.9 |
| O=C(COc1ccccc1)Nc1c2c(nn1-c1ccc(F)cc1)CS(=O)(=O)C2 | 2.4 |
| CCOc1ccc(-c2nnc(SCc3nc4ccccc4[nH]3)n2N)cc1 | -6.73 |
| COC(=O)c1ccc(CN2C(=O)C(C)N(C(=O)c3c(F)cccc3F)c3ccccc32)cc1 (stereo not drawn) | 17.2 |
| CC(CCc1ccccc1)NC(=O)CNC(=O)N1CC(=O)Nc2ccccc21 (stereo not drawn) | 18.5 |
| COc1cc(NC(=O)CCN2CC(C)OC(C)C2)cc(OC)c1 (stereo not drawn) | 6.56 |
| Cc1ccc(Cl)cc1N(Cc1ccc(C(=O)NCc2cccnc2)cc1)S(=O)(=O)c1ccccc1 | 5.87 |
| CC(C)N(C)C1CCN(C(=O)Nc2ccc(Cl)cc2)CC1 | -19.2 |
| COc1ccc(S(=O)(=O)Nc2ccc(Oc3ccsc3C(=O)O)cc2)cc1 | 16.9 |
| COc1ccc(C2c3ccc(O)cc3Oc3ncn(Cc4ccccc4)c(=N)c32)cc1OC (stereo not drawn) | -0.742 |
| COc1ccc(-c2nnc(SCC(=O)N(C)C3CCS(=O)(=O)C3)n2N)cc1OC (stereo not drawn) | 13.8 |
| CC(=O)Nc1ccc(NC(=O)CCC(=O)OCC(=O)c2ccc(F)cc2)cc1 | 6.64 |
| O=c1c2cc(O)c(O)cc2oc2cc(O)c(C3OC(CO)C(O)C(O)C3O)c(O)c12 (stereo not drawn) | 14.6 |
| O=C(CNC(=O)c1ccc(OC(F)F)cc1)NCc1ccccn1 | 5.05 |
| O=C(Cc1c[nH]c2ccccc12)NCc1cccs1 | 12.5 |
| Cn1c(COc2ccc(Cl)cc2)nc2ccccc2c1=O | -0.497 |
| Cc1ccc(S(=O)(=O)N2CCN(C)CC2c2ccccc2)cc1.Cl (stereo not drawn) | 4.32 |
| COc1ccc(S(=O)(=O)N2CCC(C(=O)Oc3ccc(C)cc3)CC2)cc1OC | -7.91 |
